Experimental data from patent US20220389082A1 (CSL BEHRING LENGNAU, published 2022).

Key:
[1] = biological target: T1, rVIII-SingleChain (single chain Factor VIII molecule, construct dBN(64-53) of WO 2004/067566) (Homo sapiens (Human), UniProt P00451 20-2351); assay: SPR (Biacore T200), D′D3-FP captured on anti-albumin antibody, rVIII-SingleChain as analyte, single cycle kinetics, 25° C.
T1 construct: also called FVIII
T1 sequence: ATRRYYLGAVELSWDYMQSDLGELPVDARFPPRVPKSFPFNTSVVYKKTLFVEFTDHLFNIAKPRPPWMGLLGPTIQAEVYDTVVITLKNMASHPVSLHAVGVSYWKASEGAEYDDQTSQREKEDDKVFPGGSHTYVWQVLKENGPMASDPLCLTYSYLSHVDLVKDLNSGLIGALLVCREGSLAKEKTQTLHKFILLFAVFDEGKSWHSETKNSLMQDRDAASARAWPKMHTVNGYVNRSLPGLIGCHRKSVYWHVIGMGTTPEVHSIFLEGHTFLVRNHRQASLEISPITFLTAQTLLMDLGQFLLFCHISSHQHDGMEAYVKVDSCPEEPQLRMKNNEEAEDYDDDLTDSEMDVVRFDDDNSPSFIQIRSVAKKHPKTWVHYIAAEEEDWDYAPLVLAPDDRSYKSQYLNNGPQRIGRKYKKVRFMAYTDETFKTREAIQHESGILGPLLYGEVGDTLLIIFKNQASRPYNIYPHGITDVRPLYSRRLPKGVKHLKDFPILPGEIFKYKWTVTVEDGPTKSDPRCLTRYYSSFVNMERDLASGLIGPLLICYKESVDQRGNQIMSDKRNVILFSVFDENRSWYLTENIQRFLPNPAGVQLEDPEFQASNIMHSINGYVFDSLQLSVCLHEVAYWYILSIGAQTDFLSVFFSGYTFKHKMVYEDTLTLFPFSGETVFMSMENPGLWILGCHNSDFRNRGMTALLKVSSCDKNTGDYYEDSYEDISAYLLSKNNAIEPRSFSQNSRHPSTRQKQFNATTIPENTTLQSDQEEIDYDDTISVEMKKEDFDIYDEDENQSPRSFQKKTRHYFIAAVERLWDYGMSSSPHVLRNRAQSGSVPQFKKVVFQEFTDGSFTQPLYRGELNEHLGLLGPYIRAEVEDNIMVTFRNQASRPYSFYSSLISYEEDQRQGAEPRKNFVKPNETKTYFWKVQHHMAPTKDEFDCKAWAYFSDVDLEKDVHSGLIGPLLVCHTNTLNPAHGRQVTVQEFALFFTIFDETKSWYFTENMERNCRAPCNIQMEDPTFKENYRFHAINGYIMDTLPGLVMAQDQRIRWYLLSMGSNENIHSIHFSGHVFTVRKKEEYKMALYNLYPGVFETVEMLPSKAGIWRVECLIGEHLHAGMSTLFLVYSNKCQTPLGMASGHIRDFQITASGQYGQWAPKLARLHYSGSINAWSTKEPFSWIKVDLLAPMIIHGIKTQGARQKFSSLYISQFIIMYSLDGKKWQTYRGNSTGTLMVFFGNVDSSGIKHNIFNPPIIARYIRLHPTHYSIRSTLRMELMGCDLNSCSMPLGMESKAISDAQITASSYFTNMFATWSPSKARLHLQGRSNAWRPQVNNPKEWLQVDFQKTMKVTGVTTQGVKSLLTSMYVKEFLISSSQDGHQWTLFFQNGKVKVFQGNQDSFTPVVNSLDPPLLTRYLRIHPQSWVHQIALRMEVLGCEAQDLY
Protocol: (§1) An anti-albumin antibody (MA1-20124, Thermo Scientific) was covalently coupled via its N-terminus to an activated CM 3 chip by NHS (N-Hydroxysuccinimide) and EDC […], both contained in the amine coupling kit (BR1000-50) from GE Healthcare. For immobilization 3 μg/mL of the antibody were diluted in sodium acetate buffer (10 mM, pH 5.0) and the antibody solution was flown over the chip for 7 min. at a flow rate of 10 μL/min. After the immobilization procedure non-coupled dextran filaments were saturated by flowing ethanolamine solution (1 M, pH 8.3) over the chip for 5 min (at a flow rate of 10 μL/min). The aim of saturating the flow cell was to minimize unspecific binding of the analytes to the chip. A reference flow cell was set up by saturating an empty flow cell with ethanolamine by using the same procedure as above.
(§2) Dimeric and monomeric D′D3-FP proteins, respectively, were immobilized to the covalently coupled anti-albumin antibody by a flow of the D′D3-FP proteins (5 μg/mL) over the chip for 3 min (flow rate of 10 μL/min).
(§3) To create binding curves for FVIII, each D′D3-FP protein preparation was diluted in running buffer (HBS-P+: 0.1 M HEPES, 1.5 M NaCl and 0.5% v/v Surfactant P20, pH 7.4; product code BR100671, GE Healthcare) to concentrations of 0.25 nM, 0.5 nM, 1 nM, 3 nM and 4 nM. […]

[2] = biological target: T1, rVIII-SingleChain (single chain Factor …); assay: SPR (Biacore T200), D′D3-FP captured on anti-albumin antibody, rVIII-SingleChain as analyte, single cycle kinetics, 25° C.; D′D3-FP monomer preparation
Protocol: as §1, §2, §3

koff [1]: 0.03 s⁻¹
kon [1]: 990000 M⁻¹ s⁻¹
Kd [2]: 30 nM
B1: D′D3 albumin fusion protein (D′D3-FP), monomer (other)
chain: SLSCRPPMVKLVCPADNLRAEGLECTKTCQNYDLECMSMGCVSGCLCPPGMVRHENRCVALERCPCFHQGKEYAPGETVKIGCNTCVCRDRKWNCTDHVCDATCSTIGMAHYLTFDGLKYLFPGECQYVLVQDYCGSNPGTFRILVGNKGCSHPSVKCKKRVTILVEGGEIELFDGEVNVKRPMKDETHFEVVESGRYIILLLGKALSVVWDRHLSISVVLKQTYQEKVCGLCGNFDGIQNNDLTSSNLQVEEDPVDFGNSWKVSSQCADTRKVPLDSSPATCHNNIMKQTMVDSSCRILTSDVFQDCNKLVDPEPYLDVCIYDTCSCESIGDCACFCDTIAAYAHVCAQHGKVVTWRTATLCPQSCEERNLRENGYECEWRYNSCAPACQVTCQHPEPLACPVQCVEGCHAHCPPGKILDELLQTCVDPEDCPVCEVAGRRFASGKKVTLNPSDPEHCQICHCDVVNLTCEACQEPGGSSGGSGGSGGSGGSGGSGGSGGSGGSGGSGS[here about 600 residues without letters]
modifications: N-glycosylated, sialylated glycoprotein from CHO cells. This is the monomer fraction from size exclusion chromatography.
notes: This is the monomer fraction isolated by size exclusion chromatography; In the SPR assay it was captured on an anti-albumin antibody; also called monomeric D′D3-FP
